Experimental data as given in the supplement of paper PMC10369915.
This is one part of the list. Rule as the data show it: active = 3.2 or more and inactive = the rest. The signal is at background level for most entries.

Biological target: SHP2 C-SH2 domain E139D
Test: enrichment score (SH2-bound / input frequency) (ratio); bacterial display of known human phosphotyrosine sites (pTyr-Var adds point mutants) read by sequencing; higher = stronger binding; tyrosines were phosphorylated by kinases first
Conditions: peptide library: pTyr-Var
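Also: displayed peptides selected on beads carrying the immobilized SH2 domain, with library peptides lacking any tyrosine serving as negative controls.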

Enrichment score, inactive:
FEEDSYSHVMA [FDPS_Y388_I391V_YF] 0.748
QAKRKYQEVSK [FES_Y156_A159V] 0.393
NRDNTYNPVSE [FGA_Y127_R129P] 0.564
QAKRKYQEASK [FES_Y156] 0.411
CSGNCYLDIRP [FBN1_Y1535_R1530C] 2.54
SLNEGYAKDFD [FBP1_Y216_R218K] 0.472
KNEIFYQCPDQ [FBXO3_Y223_V221I] 0.706
DSNPIYSQIWS [FCRL3_Y662] 0.996
GEAEQYVGGGG [FAT4_Y4980] 0.453
RSGNCYLDIRP [FBN1_Y1535] 0.799
LSQQVYRVNLS [FAT4_Y480_F475L] 0.989
DSNLIYSQIWS [FCRL3_Y662_P660L] 0.948
SSVKPYRVFCD [FGB_Y266_YF] 0.837
KLYRVYCDMNT [FGB_Y269_P265L] 0.823
AEQDCYHGAIP [FER_Y461_W460C] 1.08
AEQDWYHGAIP [FER_Y461] 0.79
SPPILYSFYLN [FCRL6_Y239_D244N] 1.56
YEEDSYSHIMA [FDPS_Y388] 0.499
SSVKPYRVYCD [FGB_Y266] 0.76

Biological target: SHP2 C-SH2 domain wild-type
Test: as above
Conditions: peptide library: pTyr-Var

Enrichment score, inactive:
FEEDSYSHVMA [FDPS_Y388_I391V_YF] 0.785
QAKRKYQEVSK [FES_Y156_A159V] 0.65
NRDNTYNPVSE [FGA_Y127_R129P] 0.415
QAKRKYQEASK [FES_Y156] 0.5
CSGNCYLDIRP [FBN1_Y1535_R1530C] 2.42
SLNEGYAKDFD [FBP1_Y216_R218K] 0.453
KNEIFYQCPDQ [FBXO3_Y223_V221I] 0.867
DSNPIYSQIWS [FCRL3_Y662] 0.897
GEAEQYVGGGG [FAT4_Y4980] 0.491
RSGNCYLDIRP [FBN1_Y1535] 0.955
LSQQVYRVNLS [FAT4_Y480_F475L] 0.983
DSNLIYSQIWS [FCRL3_Y662_P660L] 0.928
SSVKPYRVFCD [FGB_Y266_YF] 0.882
KLYRVYCDMNT [FGB_Y269_P265L] 1.03
AEQDCYHGAIP [FER_Y461_W460C] 1.23
AEQDWYHGAIP [FER_Y461] 0.708
SPPILYSFYLN [FCRL6_Y239_D244N] 1.74
YEEDSYSHIMA [FDPS_Y388] 0.441
SSVKPYRVYCD [FGB_Y266] 0.601

Biological target: SHP2 N-SH2 domain L43F
Test: as above
Conditions: peptide library: pTyr-Var

Enrichment score, inactive:
FEEDSYSHVMA [FDPS_Y388_I391V_YF] 0.596
QAKRKYQEVSK [FES_Y156_A159V] 0.555
NRDNTYNPVSE [FGA_Y127_R129P] 0.456
QAKRKYQEASK [FES_Y156] 0.411
CSGNCYLDIRP [FBN1_Y1535_R1530C] 2.68
SLNEGYAKDFD [FBP1_Y216_R218K] 0.525
KNEIFYQCPDQ [FBXO3_Y223_V221I] 0.52
DSNPIYSQIWS [FCRL3_Y662] 0.662
GEAEQYVGGGG [FAT4_Y4980] 0.64
RSGNCYLDIRP [FBN1_Y1535] 0.689
LSQQVYRVNLS [FAT4_Y480_F475L] 1.14
DSNLIYSQIWS [FCRL3_Y662_P660L] 0.905
SSVKPYRVFCD [FGB_Y266_YF] 0.761
KLYRVYCDMNT [FGB_Y269_P265L] 0.901
AEQDCYHGAIP [FER_Y461_W460C] 1.03
AEQDWYHGAIP [FER_Y461] 0.914
SPPILYSFYLN [FCRL6_Y239_D244N] 1.58
YEEDSYSHIMA [FDPS_Y388] 0.494
SSVKPYRVYCD [FGB_Y266] 0.721

Biological target: SHP2 N-SH2 domain T42A
Test: as above
Conditions: peptide library: pTyr-Var

Enrichment score, inactive:
FEEDSYSHVMA [FDPS_Y388_I391V_YF] 0.68
QAKRKYQEVSK [FES_Y156_A159V] 0.44
NRDNTYNPVSE [FGA_Y127_R129P] 0.396
QAKRKYQEASK [FES_Y156] 0.522
CSGNCYLDIRP [FBN1_Y1535_R1530C] 2.15
SLNEGYAKDFD [FBP1_Y216_R218K] 0.54
KNEIFYQCPDQ [FBXO3_Y223_V221I] 0.693
DSNPIYSQIWS [FCRL3_Y662] 0.98
GEAEQYVGGGG [FAT4_Y4980] 0.539
RSGNCYLDIRP [FBN1_Y1535] 0.762
LSQQVYRVNLS [FAT4_Y480_F475L] 0.756
DSNLIYSQIWS [FCRL3_Y662_P660L] 0.974
SSVKPYRVFCD [FGB_Y266_YF] 0.537
KLYRVYCDMNT [FGB_Y269_P265L] 0.912
AEQDCYHGAIP [FER_Y461_W460C] 1.1
AEQDWYHGAIP [FER_Y461] 0.714
SPPILYSFYLN [FCRL6_Y239_D244N] 1.73
YEEDSYSHIMA [FDPS_Y388] 0.419
SSVKPYRVYCD [FGB_Y266] 0.687

Biological target: SHP2 N-SH2 domain T52S
Test: as above
Conditions: peptide library: pTyr-Var

Enrichment score, inactive:
FEEDSYSHVMA [FDPS_Y388_I391V_YF] 0.633
QAKRKYQEVSK [FES_Y156_A159V] 0.364
NRDNTYNPVSE [FGA_Y127_R129P] 0.502
QAKRKYQEASK [FES_Y156] 0.426
CSGNCYLDIRP [FBN1_Y1535_R1530C] 2.39
SLNEGYAKDFD [FBP1_Y216_R218K] 0.548
KNEIFYQCPDQ [FBXO3_Y223_V221I] 0.764
DSNPIYSQIWS [FCRL3_Y662] 1.05
GEAEQYVGGGG [FAT4_Y4980] 0.558
RSGNCYLDIRP [FBN1_Y1535] 0.627
LSQQVYRVNLS [FAT4_Y480_F475L] 1.01
DSNLIYSQIWS [FCRL3_Y662_P660L] 0.971
SSVKPYRVFCD [FGB_Y266_YF] 0.742
KLYRVYCDMNT [FGB_Y269_P265L] 0.901
AEQDCYHGAIP [FER_Y461_W460C] 1.42
AEQDWYHGAIP [FER_Y461] 0.715
SPPILYSFYLN [FCRL6_Y239_D244N] 1.7
YEEDSYSHIMA [FDPS_Y388] 0.476
SSVKPYRVYCD [FGB_Y266] 0.695

Biological target: SHP2 N-SH2 domain wild-type
Test: as above
Conditions: peptide library: pTyr-Var

Enrichment score, inactive:
FEEDSYSHVMA [FDPS_Y388_I391V_YF] 0.864
QAKRKYQEVSK [FES_Y156_A159V] 0.455
NRDNTYNPVSE [FGA_Y127_R129P] 0.385
QAKRKYQEASK [FES_Y156] 0.551
CSGNCYLDIRP [FBN1_Y1535_R1530C] 2.16
SLNEGYAKDFD [FBP1_Y216_R218K] 0.458
KNEIFYQCPDQ [FBXO3_Y223_V221I] 0.777
DSNPIYSQIWS [FCRL3_Y662] 0.932
GEAEQYVGGGG [FAT4_Y4980] 0.61
RSGNCYLDIRP [FBN1_Y1535] 1.01
LSQQVYRVNLS [FAT4_Y480_F475L] 1
DSNLIYSQIWS [FCRL3_Y662_P660L] 1.03
SSVKPYRVFCD [FGB_Y266_YF] 0.673
KLYRVYCDMNT [FGB_Y269_P265L] 1.12
AEQDCYHGAIP [FER_Y461_W460C] 1.12
AEQDWYHGAIP [FER_Y461] 0.82
SPPILYSFYLN [FCRL6_Y239_D244N] 1.65
YEEDSYSHIMA [FDPS_Y388] 0.508
SSVKPYRVYCD [FGB_Y266] 0.741
